Measured values published in the supplement of paper PMC8728848.
The list shows a part of the results.

Legend:
Experiment in all cases: glycan array binding signal (z-score within array); higher = stronger binding
Settings in all cases: glycan notation: IUPAC condensed, linker removed
Fuc(a1-2)Gal = biological target: Fuc(a1-2)Gal
Procedure, shortened: (§1)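 Columns mapping to the same glycan were averaged after glycan names were converted to IUPAC-condensed notation. The data come from 3228 arrays in the Consortium for Functional Glycomics database, limited to those with an available protein sequence. Binding is reported as a within-array Z-score averaged across arrays of one protein sequence and across linkers.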

Fuc(a1-2)Gal(b1-3)GalNAc = biological target: Fuc(a1-2)Gal(b1-3)GalNAc
Procedure, shortened: as §1

[1] = biological target: Fuc(a1-2)Gal(b1-3)GalNAc(a1-3)[Fuc(a1-2)]Gal(b1-4)Glc
Procedure, shortened: as §1

[2] = biological target: Fuc(a1-2)Gal(b1-3)GalNAc(a1-3)[Fuc(a1-2)]Gal(b1-4)GlcNAc
Procedure, shortened: as §1

[3] = biological target: Fuc(a1-2)Gal(b1-3)GalNAc(b1-3)Gal
Procedure, shortened: as §1

[4] = biological target: Fuc(a1-2)Gal(b1-3)GalNAc(b1-3)Gal(a1-4)Gal(b1-4)Glc
Procedure, shortened: as §1

[5] = biological target: Fuc(a1-2)Gal(b1-3)GalNAc(b1-4)[Neu5Ac(a2-3)]Gal(b1-4)Glc
Procedure, shortened: as §1

Fuc(a1-2)Gal(b1-3)GlcNAc = biological target: Fuc(a1-2)Gal(b1-3)GlcNAc
Procedure, shortened: as §1

[6] = biological target: Fuc(a1-2)Gal(b1-3)GlcNAc(b1-2)Man(a1-3)[Fuc(a1-2)Gal(b1-3)GlcNAc(b1-2)Man(a1-6)]Man(b1-4)GlcNAc(b1-4)GlcNAc
Procedure, shortened: as §1

[7] = biological target: Fuc(a1-2)Gal(b1-3)GlcNAc(b1-2)Man(a1-3)[Fuc(a1-2)Gal(b1-3)GlcNAc(b1-2)Man(a1-6)]Man(b1-4)GlcNAc(b1-4)[Fuc(a1-6)]GlcNAc
Procedure, shortened: as §1

[8] = biological target: Fuc(a1-2)Gal(b1-3)GlcNAc(b1-3)Gal(b1-4)Glc
Procedure, shortened: as §1

[9] = biological target: Fuc(a1-2)Gal(b1-3)GlcNAc(b1-3)GalNAc
Procedure, shortened: as §1

[10] = biological target: Fuc(a1-2)Gal(b1-3)GlcNAc(b1-3)[Fuc(a1-2)Gal(b1-3)GlcNAc(b1-6)]GalNAc
Procedure, shortened: as §1

[11] = biological target: Fuc(a1-2)Gal(b1-3)GlcNAc(b1-3)[Gal(b1-4)GlcNAc(b1-6)]Gal(b1-4)Glc
Procedure, shortened: as §1

[12] = biological target: Fuc(a1-2)Gal(b1-3)GlcNAc(b1-3)[Neu5Ac(a2-6)Gal(b1-4)GlcNAc(b1-6)]Gal(b1-4)Glc
Procedure, shortened: as §1

[13] = biological target: Fuc(a1-2)Gal(b1-3)GlcNAc6S
Procedure, shortened: as §1

[14] = biological target: Fuc(a1-2)Gal(b1-3)[Fuc(a1-4)]GlcNAc
Procedure, shortened: as §1

[15] = biological target: Fuc(a1-2)Gal(b1-3)[Fuc(a1-4)]GlcNAc(b1-2)Man(a1-3)[Fuc(a1-2)Gal(b1-3)[Fuc(a1-4)]GlcNAc(b1-2)Man(a1-3)]Man(b1-4)GlcNAc(b1-4)GlcNAc
Procedure, shortened: as §1

[16] = biological target: Fuc(a1-2)Gal(b1-3)[Fuc(a1-4)]GlcNAc(b1-2)Man(a1-3)[Fuc(a1-2)Gal(b1-3)[Fuc(a1-4)]GlcNAc(b1-2)Man(a1-6)]Man(b1-4)GlcNAc(b1-4)[Fuc(a1-6)]GlcNAc(b1-4)[Fuc(a1-6)]GlcNAc
Procedure, shortened: as §1

[17] = biological target: Fuc(a1-2)Gal(b1-3)[Fuc(a1-4)]GlcNAc(b1-3)[Fuc(a1-3)[Gal(b1-4)]GlcNAc(b1-6)]Gal(b1-4)Glc
Procedure, shortened: as §1

[18] = biological target: Fuc(a1-2)Gal(b1-3)[Fuc(a1-4)]GlcNAc(b1-3)[Gal(b1-4)GlcNAc(b1-6)]Gal(b1-4)Glc
Procedure, shortened: as §1

Fuc(a1-2)Gal(b1-4)Glc = biological target: Fuc(a1-2)Gal(b1-4)Glc
Procedure, shortened: as §1

Fuc(a1-2)Gal(b1-4)Glc6S = biological target: Fuc(a1-2)Gal(b1-4)Glc6S
Procedure, shortened: as §1

Fuc(a1-2)Gal(b1-4)GlcNAc = biological target: Fuc(a1-2)Gal(b1-4)GlcNAc
Procedure, shortened: as §1

[19] = biological target: Fuc(a1-2)Gal(b1-4)GlcNAc(b1-2)Man
Procedure, shortened: as §1

[20] = biological target: Fuc(a1-2)Gal(b1-4)GlcNAc(b1-2)Man(a1-3)[Fuc(a1-2)Gal(b1-4)GlcNAc(b1-2)Man(a1-6)]Man(b1-4)GlcNAc(b1-4)GlcNAc
Procedure, shortened: as §1

[21] = biological target: Fuc(a1-2)Gal(b1-4)GlcNAc(b1-2)Man(a1-3)[Fuc(a1-2)Gal(b1-4)GlcNAc(b1-2)Man(a1-6)]Man(b1-4)GlcNAc(b1-4)[Fuc(a1-6)]GlcNAc
Procedure, shortened: as §1

[22] = biological target: Fuc(a1-2)Gal(b1-4)GlcNAc(b1-2)[Fuc(a1-2)Gal(b1-4)GlcNAc(b1-4)]Man(a1-3)[Fuc(a1-2)Gal(b1-4)GlcNAc(b1-2)Man(a1-6)]Man(b1-4)GlcNAc(b1-4)GlcNAc
Procedure, shortened: as §1

[23] = biological target: Fuc(a1-2)Gal(b1-4)GlcNAc(b1-3)Gal(b1-4)GlcNAc
Procedure, shortened: as §1

[24] = biological target: Fuc(a1-2)Gal(b1-4)GlcNAc(b1-3)Gal(b1-4)GlcNAc(b1-2)Man(a1-3)[Fuc(a1-2)Gal(b1-4)GlcNAc(b1-3)Gal(b1-4)GlcNAc(b1-2)Man(a1-6)]Man(b1-4)GlcNAc(b1-4)GlcNAc
Procedure, shortened: as §1

[25] = biological target: Fuc(a1-2)Gal(b1-4)GlcNAc(b1-3)Gal(b1-4)GlcNAc(b1-3)Gal(b1-4)GlcNAc
Procedure, shortened: as §1

[26] = biological target: Fuc(a1-2)Gal(b1-4)GlcNAc(b1-3)GalNAc
Procedure, shortened: as §1

[27] = biological target: Fuc(a1-2)Gal(b1-4)GlcNAc(b1-3)[Fuc(a1-2)Gal(b1-4)GlcNAc(b1-6)]GalNAc
Procedure, shortened: as §1

[28] = biological target: Fuc(a1-2)Gal(b1-4)GlcNAc(b1-3)[Fuc(a1-3)[Gal(b1-4)]GlcNAc(b1-6)]Gal(b1-4)Glc
Procedure, shortened: as §1

[29] = biological target: Fuc(a1-2)Gal(b1-4)GlcNAc(b1-6)GalNAc
Procedure, shortened: as §1

[30] = biological target: Fuc(a1-2)Gal(b1-4)GlcNAc6S
Procedure, shortened: as §1

[31] = biological target: Fuc(a1-2)Gal(b1-4)[Fuc(a1-3)]GlcNAc
Procedure, shortened: as §1

[32] = biological target: Fuc(a1-2)Gal(b1-4)[Fuc(a1-3)]GlcNAc(b1-2)Man(a1-3)[Fuc(a1-2)Gal(b1-4)[Fuc(a1-3)]GlcNAc(b1-2)Man(a1-6)]Man(b1-4)GlcNAc(b1-4)[Fuc(a1-6)]GlcNAc
Procedure, shortened: as §1

[33] = biological target: Fuc(a1-2)Gal(b1-4)[Fuc(a1-3)]GlcNAc(b1-2)[Fuc(a1-2)Gal(b1-4)[Fuc(a1-3)]GlcNAc(b1-4)]Man(a1-3)[Fuc(a1-2)Gal(b1-4)[Fuc(a1-3)]GlcNAc(b1-2)Man(a1-6)]Man(b1-4)GlcNAc(b1-4)GlcNAc
Procedure, shortened: as §1

[34] = biological target: Fuc(a1-2)Gal(b1-4)[Fuc(a1-3)]GlcNAc(b1-3)Gal(b1-4)[Fuc(a1-3)]GlcNAc
Procedure, shortened: as §1

[35] = biological target: Fuc(a1-2)Gal(b1-4)[Fuc(a1-3)]GlcNAc(b1-3)Gal(b1-4)[Fuc(a1-3)]GlcNAc(b1-3)Gal(b1-4)[Fuc(a1-3)]GlcNAc
Procedure, shortened: as §1

[36] = biological target: Fuc(a1-2)Gal(b1-4)[Fuc(a1-3)]GlcNAc(b1-3)GalNAc
Procedure, shortened: as §1

[37] = biological target: Fuc(a1-2)Gal(b1-4)[Fuc(a1-3)]GlcNAc(b1-3)[Neu5Ac(a2-6)Gal(b1-4)GlcNAc(b1-6)]Gal(b1-4)Glc
Procedure, shortened: as §1

[38] = biological target: Fuc(a1-2)Gal3S(b1-4)GlcNAc
Procedure, shortened: as §1

[39] = biological target: Fuc(a1-2)Gal6S(b1-3)GlcNAc
Procedure, shortened: as §1

B1: AT1G15820(NC) (Arabidopsis thaliana) (protein)
chain: MAMAVSGAVLSGLGSSFLTGGKRGATALASGVGDAIAPFSFGSLLGTQLLLMGWVESKRWVDFFNPDSQSVEWATPWSKTAENFANYTGDQGYPGGRFFDPLGLAGKNRDGVYEPDFEKLERLKLAEIKHSRLAMVAMLIFYFEAGQGKTPLGALGL
glycan array binding signal (z-score) (Fuc(a1-2)Gal): 4.29 | glycan array binding signal (z-score) (Fuc(a1-2)Gal(b1-3)GalNAc): -0.293 | glycan array binding signal (z-score) [1]: -0.296 | glycan array binding signal (z-score) [2]: -0.041 | glycan array binding signal (z-score) [3]: 1.29 | glycan array binding signal (z-score) [4]: -0.533 | glycan array binding signal (z-score) [5]: -0.345 | glycan array binding signal (z-score) (Fuc(a1-2)Gal(b1-3)GlcNAc): -0.076 | glycan array binding signal (z-score) [6]: -0.208 | glycan array binding signal (z-score) [7]: 3.01 | glycan array binding signal (z-score) [8]: -0.235 | glycan array binding signal (z-score) [9]: 1.63 | glycan array binding signal (z-score) [10]: -0.452 | glycan array binding signal (z-score) [11]: -0.55 | glycan array binding signal (z-score) [12]: -0.346 | glycan array binding signal (z-score) [13]: -0.5 | glycan array binding signal (z-score) [14]: -0.307 | glycan array binding signal (z-score) [15]: -0.086 | glycan array binding signal (z-score) [16]: -0.234 | glycan array binding signal (z-score) [17]: -0.332 | glycan array binding signal (z-score) [18]: -0.377 | glycan array binding signal (z-score) (Fuc(a1-2)Gal(b1-4)Glc): -0.522 | glycan array binding signal (z-score) (Fuc(a1-2)Gal(b1-4)Glc6S): -0.066 | glycan array binding signal (z-score) (Fuc(a1-2)Gal(b1-4)GlcNAc): -0.457 | glycan array binding signal (z-score) [19]: 0.457 | glycan array binding signal (z-score) [20]: 0.304 | glycan array binding signal (z-score) [21]: -0.145 | glycan array binding signal (z-score) [22]: -0.399 | glycan array binding signal (z-score) [23]: -0.234 | glycan array binding signal (z-score) [24]: -0.445 | glycan array binding signal (z-score) [25]: -0.439 | glycan array binding signal (z-score) [26]: -0.236 | glycan array binding signal (z-score) [27]: -0.499 | glycan array binding signal (z-score) [28]: -0.22 | glycan array binding signal (z-score) [29]: -0.346 | glycan array binding signal (z-score) [30]: -0.752 | glycan array binding signal (z-score) [31]: -0.131 | glycan array binding signal (z-score) [32]: -0.351 | glycan array binding signal (z-score) [33]: -0.506 | glycan array binding signal (z-score) [34]: -0.174 | glycan array binding signal (z-score) [35]: -0.429 | glycan array binding signal (z-score) [36]: 1.13 | glycan array binding signal (z-score) [37]: -0.258 | glycan array binding signal (z-score) [38]: -0.477 | glycan array binding signal (z-score) [39]: -0.362
